Source: PubChem BioAssay AID504339 (National Center for Advancing Translational Sciences (NCATS), 2011)
The whole screen tested about 390,000 compounds, of which about 17,000 (4.4%) were called active. The shares of active, inactive and inconclusive entries below differ from those in the screen. Calls follow the shape of the dose curve; as a rule, active = well fitted inhibition curve with a large enough effect; inconclusive = small, poorly fitted or top-dose-only effect; inactive = no such curve, though single readings can be large or run the other way. Where the call is inconclusive, the potency comes from a doubtful curve fit.

Molecular target: Lysine-specific demethylase 4A (Homo sapiens) (UniProt O75164)
Test: qHTS Assay for Inhibitors of JMJD2A-Tudor Domain; also: nearly all actives have a fitted effect of over 50% in size
Conditions: AlphaScreen JMJD2A-Tudor / H3K4me3 peptide binding; activity change, negative = inhibition: at 114 µM (top of the series)
% is scaled to controls: 0 for no effect and ±100 for the full control effect; potency is read from the fitted curve at half-maximal effect; tags tell the direction and shape of the fitted curve.

UniProt O75164, sequence (O75164 whole entry, looked up, the tested form may be a part): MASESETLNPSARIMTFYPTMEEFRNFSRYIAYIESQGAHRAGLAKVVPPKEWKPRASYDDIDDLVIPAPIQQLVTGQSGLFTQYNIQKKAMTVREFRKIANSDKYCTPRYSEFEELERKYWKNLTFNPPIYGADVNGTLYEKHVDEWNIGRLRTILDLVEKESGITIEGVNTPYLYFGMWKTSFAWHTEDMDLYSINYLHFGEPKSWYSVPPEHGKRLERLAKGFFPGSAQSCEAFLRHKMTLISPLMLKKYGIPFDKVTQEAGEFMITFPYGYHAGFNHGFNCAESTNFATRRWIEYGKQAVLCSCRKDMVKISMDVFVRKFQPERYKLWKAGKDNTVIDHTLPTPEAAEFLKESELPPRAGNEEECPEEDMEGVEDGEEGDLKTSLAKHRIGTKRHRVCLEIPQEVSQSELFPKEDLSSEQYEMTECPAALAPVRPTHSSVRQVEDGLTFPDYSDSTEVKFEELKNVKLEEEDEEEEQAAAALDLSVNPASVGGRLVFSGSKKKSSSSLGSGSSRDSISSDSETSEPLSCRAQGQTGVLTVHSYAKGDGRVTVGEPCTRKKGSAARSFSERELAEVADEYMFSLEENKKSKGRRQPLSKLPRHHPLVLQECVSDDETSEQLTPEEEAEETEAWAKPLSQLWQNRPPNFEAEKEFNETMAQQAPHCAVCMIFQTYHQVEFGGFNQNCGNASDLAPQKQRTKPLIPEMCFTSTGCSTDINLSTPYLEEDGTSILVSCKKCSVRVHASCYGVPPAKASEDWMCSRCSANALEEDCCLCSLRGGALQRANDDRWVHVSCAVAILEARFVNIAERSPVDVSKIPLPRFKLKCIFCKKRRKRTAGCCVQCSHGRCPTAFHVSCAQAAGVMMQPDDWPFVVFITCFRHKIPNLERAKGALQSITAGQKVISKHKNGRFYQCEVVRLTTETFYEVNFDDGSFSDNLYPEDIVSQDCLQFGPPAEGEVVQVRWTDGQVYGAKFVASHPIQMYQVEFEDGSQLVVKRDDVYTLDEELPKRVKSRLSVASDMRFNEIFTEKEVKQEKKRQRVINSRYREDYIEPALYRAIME

Row | Compound | Potency | activity change, negative = inhibition
1 | O=C(c1cccnc1)N1N=C(c2cccs2)CC1c1ccc(F)cc1 (configuration not stated) | inconclusive: 89.1 µM [inhibitor, single point] | 
2 | COc1cc(CNc2cccc(F)c2)cc(Br)c1O | inconclusive: 50.1 µM [inhibitor, partial curve] | 
3 | CC1CCN(c2oc(-c3ccc(OCc4ccccc4Cl)cc3)nc2C#N)CC1 | inconclusive: 7.08 µM [inhibitor, partial curve] | 
4 | O=C(CNC(=O)c1cccs1)Nc1ncccc1O |  | inactive: -12.5%
5 | COc1cc(/C=C/C(=O)O)cc(S(=O)(=O)Nc2ccccc2Cl)c1OC |  | inactive: 1.06% [at 57.1 µM]
6 | O=C(Cc1ccc(F)cc1)Nc1nnc(SCC(=O)NC2CCCC2)s1 |  | inactive: -6.01%
7 | Cc1c(Cl)cccc1NC(=O)Cn1cc2c(n1)CCCC2 |  | inactive: -14.4%
8 | CCNc1cccc2c1C(=O)N(C)C2=O |  | inactive: 17.2%
9 | O=C(N/N=C/c1cccnc1)c1cc2c(ccc3ccccc32)o1 |  | inactive: -33.9%
10 | COc1ccc(NC(C)=O)cc1NC(=O)CSc1nc2ncccc2[nH]1 | inconclusive: 3.55 µM [inhibitor, single point] | 
11 | COc1ccc(C(C)NC(=O)Cc2cccs2)cc1OC (configuration not stated) |  | inactive: -5.15%
12 | CN(C)CC/C=C1/c2ccc(F)cc2Sc2ccc(Cl)cc21 | inconclusive: 25.1 µM [inhibitor, partial curve, poor fit] | 
13 | COc1ccc(CCN(C)C(=O)CN2C(=O)c3ccccc3S2(=O)=O)cc1OC | active: 79.4 µM | 
14 | O=C(O)c1cc(/C=C/C(=O)c2cc(F)ccc2O)c2c(c1)COCO2 | inconclusive: 89.1 µM [inhibitor, single point] | 
15 | N/C(Cc1ccc(Cl)cc1)=N\OC(=O)Cc1ccc([N+](=O)[O-])cc1 | inconclusive: 44.7 µM [inhibitor, full curve, poor fit] | 
16 | Cc1ccc2cccc(N=Cc3c(C)[nH]n(-c4ccccc4)c3=O)c2n1 | inconclusive: 50.1 µM [inhibitor, partial curve] | 
17 | COC(=O)c1cc(C#N)c(NCc2ccccc2)nc1C | inconclusive: 3.98 µM [inhibitor, single point] | 
18 | O=C(O)c1cccc(-n2cccc2/C=C2/SC(=O)N(CC(=O)N3CCCC3)C2=O)c1 | active: 39.8 µM | 
19 | O=C(Nc1nccs1)C1CCCN1S(=O)(=O)c1cccc2cccnc12 (configuration not stated) | inconclusive: 17.8 µM [inhibitor, full curve] | 
20 | Brc1ccccc1-c1nnc(CSc2nncn2-c2ccccc2)o1 | inconclusive: 39.8 µM [inhibitor, single point] | 
21 | Clc1cccc(N/N=C/c2ccc(N3CCOCC3)cc2)c1 | inconclusive: 63.1 µM [inhibitor, partial curve, poor fit] | 
22 | Nc1ccc2c(c1Br)Cc1ccccc1-2 | inconclusive: 50.1 µM [inhibitor, partial curve] | 
23 | COC(=O)Cc1cc(=O)n2[nH]c(C)nc2n1 | inconclusive: 89.1 µM [inhibitor, partial curve] | 
24 | CC(=O)OCC1=C(C(=O)O)N2C(=O)C(NC(=O)c3ccc(COc4cccc(Cl)c4Cl)o3)C2SC1 (configuration not stated) | inconclusive: 56.2 µM [inhibitor, partial curve] | 

Row | Compound | Potency | activity change, negative = inhibition
25 | COc1cc(/C=N/NC(=S)NC2CC3CCC2C3)ccc1O (configuration not stated) | inconclusive: 79.4 µM [inhibitor, single point] | 
26 | CCn1cc(S(=O)(=O)c2cccc(C)c2)c(=O)c2cc(F)c(N3CCN(c4ccccc4)CC3)cc21 |  | inactive: -7.59%
27 | C#CCOCCOCCOCCNc1nc(N2CCN(C(=O)[C@H](CCCCN)n3cc(CN)nn3)CC2)nc(N2CCN(C(=O)[C@H](CCC(=O)O)n3cc([C@@H](N)[C@H](C)CC)nn3)CC2)n1 | active: 56.2 µM | 
28 | CCCCCCn1c(N2CCN(c3cccc(Cl)c3)CC2)nc2c1c(=O)[nH]c(=O)n2C | inconclusive: 35.5 µM [inhibitor, partial curve] | 
29 | CCOc1ccc(C(=O)OCCN(C)C)cc1 | inconclusive: 89.1 µM [inhibitor, single point] | 
30 | Cc1cc(C)n(CCc2nc3c4ccccc4nc(N4CCN(c5ccc(F)cc5)CC4)n3n2)n1 |  | inactive: -10.2%
31 | C[C@@]12C(=O)N(CC3CCCO3)CC(=O)N1[C@@H]1c3ccccc3OC[C@@H]1[C@@H]2c1ccccc1 (some centres not stated) | inconclusive: 100 µM [inhibitor, single point] | 
32 | CC(C)CC(NC(=O)C1CCC(=O)N1C(=O)OCc1ccccc1)C(=O)NC(Cc1ccccc1)C(N)=O (configuration not stated) |  | inactive: -12.7%
33 | CCOC(=O)c1ccc2ncc(C(=O)OCC)c(NCCN3CCOCC3)c2c1 |  | inactive: -10.8%
34 | COCCNC(=S)N(CCc1c(C)[nH]c2ccc(OC)cc12)Cc1ccco1 | inconclusive: 56.2 µM [inhibitor, partial curve] | 
35 | NC(=S)N/N=C/c1ccccc1OC(=O)/C=C/c1ccccc1 | inconclusive: 44.7 µM [inhibitor, partial curve] | 
36 | Cc1cc(/C=N/n2cnnc2)c(C)n1-c1cc(Cl)ccc1Cl | inconclusive: 79.4 µM [inhibitor, partial curve] | 
37 | CCN(C(=O)CSc1nc2ccccc2n1CC(=O)Nc1ccc(F)cc1F)c1ccccc1 |  | inactive: -10.3%
38 | COc1ccc(-c2ccc(CCC(=O)O)n2-c2ccc(Cl)cc2C)cc1 | inconclusive: 70.8 µM [inhibitor, single point] | 
39 | CCN(C(=O)CSc1nc2n[nH]c(C)c2c(=N)n1-c1cccc(OC)c1)c1cccc(C)c1 | inconclusive: 50.1 µM [inhibitor, partial curve] | 
40 | CC(=O)N[C@@H](C)c1nc2ccccc2n1CCCN1CCN(c2nc(-c3ccc(C)cc3)cs2)CC1 | inconclusive: 50.1 µM [inhibitor, partial curve] | 
41 | COc1ccc(-c2cc(C(=O)OCC(=O)c3c(N)n(C)c(=O)n(C)c3=O)c3ccccc3n2)cc1 |  | inactive: 13.1%
42 | COc1ccc(C(c2nnnn2Cc2ccc(F)cc2)N2CCN(c3ccc(OC)cc3)CC2)cc1 (configuration not stated) | inconclusive: 31.6 µM [inhibitor, partial curve] | 
43 | COCC1CCCCN1C(=O)c1ccc(OC2CCN(Cc3ccccn3)CC2)cc1 (configuration not stated) | active: 25.1 µM | 
44 | O=C1NC(c2ccc(Cl)cc2)=COc2ccccc21 |  | inactive: -1.37%
45 | Nc1ccccc1C#Cc1ccc2[nH]ccc2c1 | inconclusive: 56.2 µM [inhibitor, partial curve] | 
46 | c1ccc2c(c1)[nH]c1ccccc12 |  | inactive: -8.16%
47 | O=C1c2ccccc2C2=Nc3ccccc3SC(c3ccccc3F)C12 (configuration not stated) | active: 14.1 µM | 
48 | O=C(COC(=O)Cn1[nH]c(=O)c2ccccc2c1=O)NNC(=O)c1ccc(Br)cc1 |  | inactive: 3.36%

Row | Compound | Potency | activity change, negative = inhibition
49 | S=c1[nH]nc(-c2cccnc2)n1/N=C/c1ccc(Br)s1 | active: 5.62 µM | 
50 | CC(NS(=O)(=O)c1ccccc1)C1CC2CCC1C2 (configuration not stated) |  | inactive: 4.73%
51 | COc1ccc(Cl)cc1NC(=O)C(C)N1CCN(C/C=C/c2ccccc2)CC1 (configuration not stated) | active: 3.55 µM | 
52 | CCC(C)NC(=O)c1sc2ncccc2c1-n1c(C)ccc1C (configuration not stated) |  | inactive: -15.3%
53 | S=c1[nH]nc(-c2cccs2)n1/N=C/c1c(Cl)cccc1Cl | inconclusive: 22.4 µM [inhibitor, full curve] | 
54 | O=C(/C=C/c1ccc([N+](=O)[O-])cc1)c1cccnc1 | inconclusive: 28.2 µM [inhibitor, partial curve] | 
55 | CS(=O)(=O)c1ccccc1-c1nnc(NC(=O)c2ccc3ncsc3c2)o1 | active: 56.2 µM | 
56 | O=C(c1cccc2nc3ccccc3nc12)N1CCOCC1 | active: 79.4 µM | 
57 | CC(=O)Nc1ccc(S(=O)(=O)Nc2cc(S(=O)(=O)N3CCCCC3)ccc2O)cc1 | inconclusive: 0.708 µM [inhibitor, full curve, poor fit] | 
58 | O=C(c1c[nH]c2ccccc12)C(O)C(c1ccccc1)N1CCOCC1 (configuration not stated) |  | inactive: -4.47%
59 | Cc1nn(-c2ccc(N3CCCCC3)nn2)c(C)c1CCC(=O)NCc1ccc(Cl)cc1 | inconclusive: 35.5 µM [inhibitor, partial curve, poor fit] | 
60 | CCc1ccc(-c2nc(CN3CCC(C(=O)NCc4ccccc4OC)CC3)c(C)o2)cc1 | inconclusive: 89.1 µM [inhibitor, single point] | 
61 | O=S(=O)(Nc1nc2ccccc2nc1N1CCN(c2ccccn2)CC1)c1ccc(Cl)cc1 | inconclusive: 56.2 µM [inhibitor, partial curve, poor fit] | 
62 | O=c1cc(CN2CCOCC2)c2ccc(O)c(O)c2o1 | inconclusive: 3.55 µM [inhibitor, full curve, poor fit] | 
63 | C=CCn1c(NCc2ccco2)nc2ccccc21 |  | inactive: -4.26%
64 | O=C1OCCC1Sc1nnc(-c2cccnc2)n1-c1ccccc1F (configuration not stated) | inconclusive: 28.2 µM [inhibitor, single point] | 
65 | Cc1cc(/C=N/n2cnnc2)c(C)n1-c1ccc(Cl)cc1Cl | inconclusive: 56.2 µM [inhibitor, partial curve] | 
66 | N#Cc1ccc(OCCN2CCc3ccccc3C2)cc1 | active: 25.1 µM | 
67 | Cc1ccc(NCc2nnc(SCC(=O)c3ccccc3)o2)c(C)c1 | inconclusive: 35.5 µM [inhibitor, partial curve] | 
68 | O=[N+]([O-])c1ccc(/C=N/NS(=O)(=O)c2ccc(Cl)cc2)o1 | inconclusive: 79.4 µM [inhibitor, partial curve] | 
69 | Cn1c(CCNC(=O)OC(C)(C)C)n[nH]c1=S | active: 39.8 µM | 
70 | CC(C)C1Cc2c(sc3ncnc(NN)c23)CO1 (configuration not stated) | active: 25.1 µM | 
71 | COc1ccc(C2CC(=O)N(Cc3ccccc3)c3c2c(C)nn3-c2nc(C)cc(C)n2)c(OC)c1 (configuration not stated) |  | inactive: -12.9%
72 | Cc1ccc([N+](=O)[O-])cc1NC(=O)CN(C(=O)c1ccccc1Cl)C1CCCCC1 | inconclusive: 50.1 µM [inhibitor, partial curve] | 
